Laboratory results reported in the antibiotic and cytotoxicity screens of Wong et al. (2023).
This is one part of the list.

These compounds were tested on HepG2 (assay: cytotoxicity call (relative viability < 0.9)). Details: 10 µM.

| Compound | cytotoxicity call |
| --- | --- |
| COc1ccc(NC(=O)Nc2ccc3c(c2)CC(=O)N([C@H](C)CO)C[C@H](C)[C@H](CN(C)Cc2ccc(Cl)c(Cl)c2)O3)cc1 | active |
| CCS(=O)(=O)N1C[C@]2(CCN(CC2)S(=O)(=O)c2ccccc2)c2c(n(c3cc(ccc23)OC)C)[C@@H]1CO | inactive |
| C[C@H]1CN([C@@H](C)CO)C(=O)c2cccc(NS(=O)(=O)c3ccc(F)cc3)c2O[C@H]1CN(C)C(=O)Nc1cccc2ccccc12 | inactive |
| O=C(C1=C[C@H](c2coc3ccccc3c2=O)C[C@H](OCCCCO)O1)N1CCN(Cc2ccc3c(c2)OCO3)CC1 | inactive |
| C[C@@H]1CN([C@H](C)CO)C(=O)c2c(c3ccccc3n2C)-c2ccccc2CO[C@H]1CN(C)Cc1ccc(F)cc1 | inactive |
| CS(=O)(=O)N1CCOC[C@]2(CN(C(=O)c3ccc[nH]3)CCO2)C1 | inactive |
| Cc1cc(C(=O)Nc2cccc3c2O[C@H](CN(C)C(=O)Nc2ccccc2)[C@@H](C)CN([C@H](C)CO)C3=O)n(C)n1 | inactive |
| O=C(O)Cn1cc(Br)c(=O)[nH]c1=O | inactive |
| C[C@@H]1CCCCO[C@@H](CN(C)S(=O)(=O)c2cn(C)cn2)[C@H](C)CN([C@@H](C)CO)C(=O)c2cc(NS(=O)(=O)c3cn(C)cn3)ccc2O1 | inactive |
| COc1ccc(S(=O)(=O)Nc2ccc3c(c2)C(=O)N([C@H](C)CO)C[C@H](C)[C@H](CN(C)CC2CC2)O3)cc1 | inactive |
| C[C@H]1CCCCO[C@H](CN(C)C(=O)Nc2ccc(C(F)(F)F)cc2)[C@@H](C)CN([C@@H](C)CO)C(=O)c2cc(NC(=O)c3ccncc3)ccc2O1 | inactive |
| C[C@H](CO)N1C[C@H](C)[C@@H](CN(C)S(=O)(=O)c2ccccc2)Oc2ccc(NC(=O)Cn3cnnn3)cc2C1=O | inactive |
| COCC(=O)N(C)C[C@H]1Oc2cc(C#Cc3ccccc3)ccc2S(=O)(=O)N([C@@H](C)CO)C[C@@H]1C | inactive |
| Cc1noc(C)c1NC(=O)Nc1ccc2c(c1)C(=O)N([C@H](C)CO)C[C@H](C)[C@H](CN(C)C(=O)Nc1c(C)noc1C)OCCCC[C@H](C)O2 | inactive |
| C[C@@H]1CCCCO[C@@H](CN(C)C(=O)Nc2ccc(C(F)(F)F)cc2)[C@H](C)CN([C@@H](C)CO)C(=O)c2cc(NC(=O)Nc3cccc4ccccc34)ccc2O1 | inactive |
| COc1ccc(S(=O)(=O)N(C)C[C@H]2Oc3c(NC(=O)C4CCOCC4)cccc3C(=O)N([C@@H](C)CO)C[C@H]2C)cc1 | inactive |
| CNC[C@@H]1Oc2cc(C#CCN(C)C)ccc2S(=O)(=O)N([C@@H](C)CO)C[C@H]1C | inactive |
| C[C@H]1CN([C@@H](C)CO)C(=O)c2cc(C#CCc3ccccc3)cnc2O[C@H]1CN(C)CC1CCOCC1 | inactive |
| C[C@H]1CCCCO[C@H](CN(C)Cc2ccccc2)[C@@H](C)CN([C@@H](C)CO)C(=O)c2cc(NC(=O)Cc3ccccc3)ccc2O1 | inactive |
| CO[C@@H]1CN(C)C(=O)c2ccc(NC(=O)Nc3cccc(Cl)c3)cc2OC[C@H](C)N(C(=O)Nc2c(C)noc2C)C[C@H]1C | inactive |

| Compound | cytotoxicity call |
| --- | --- |
| O=C(C[C@H]1C[C@@H]2c3cc(NS(=O)(=O)c4ccc(F)cc4)ccc3O[C@@H]2[C@@H](CO)O1)N1CCCCC1 | inactive |
| C[C@@H]1CCCCO[C@@H](CN(C)CC2CC2)[C@H](C)CN([C@@H](C)CO)C(=O)c2cc(NC(=O)NC3CCCCC3)ccc2O1 | inactive |
| Cn1cc(-c2nc(N[C@@H]3CCCC[C@@H]3N)c(F)c3c2C(=O)NC3)cn1 | inactive |
| NC(=O)c1nnn(Cc2ccccc2)c1N | inactive |
| CO[C@@H](CN(C)S(=O)(=O)c1cccc(Cl)c1)[C@H](C)CN([C@H](C)CO)S(=O)(=O)c1cccc(Cl)c1 | inactive |
| COc1ccc(CN(c2ncns2)S(=O)(=O)c2ccc(Oc3c(F)cc(F)cc3-c3ccnn3C)c(C#N)c2)c(OC)c1 | inactive |
| Cc1noc(C)c1S(=O)(=O)Nc1ccc2c(c1)C(=O)N([C@@H](C)CO)C[C@H](C)[C@@H](CN(C)CC1CCCCC1)OCCCC[C@H](C)O2 | inactive |
| COc1ccc(S(=O)(=O)N(C)C[C@H]2Oc3ccc(NC(=O)Nc4c(C)noc4C)cc3C(=O)N([C@@H](C)CO)C[C@@H]2C)cc1 | inactive |
| COc1ccc(C#Cc2ccc3c(c2)O[C@H](CN(C)C(=O)CN2CCOCC2)[C@@H](C)CN([C@H](C)CO)S3(=O)=O)cc1 | inactive |
| C[C@@H]1CN([C@@H](C)CO)C(=O)c2cccc(NC(=O)c3ccc(-c4nccs4)cc3)c2O[C@@H]1CN(C)Cc1ccc(Cl)c(Cl)c1 | active |
| C[C@@H]1CN([C@@H](C)CO)C(=O)Cc2cc(NC(=O)CCN3CCOCC3)ccc2O[C@@H]1CN(C)CC1CC1 | inactive |
| CC(C)=CCC/C(C)=C/C=O | inactive |
| O=C(CS)NCCCCCNC(=O)[C@@H]1C[C@@H]2C(=O)N[C@@H](Cc3ccccc3)C(=O)N2[C@@H]1c1ccc(O)cc1 | inactive |
| Cc1noc(C)c1NC(=O)N(C)C[C@@H]1Oc2c(NS(=O)(=O)c3cn(C)cn3)cccc2C(=O)N([C@@H](C)CO)C[C@@H]1C | inactive |
| NCC[C@H]1CC[C@H](NC(=O)Nc2ccc(F)cc2)[C@H](CO)O1 | inactive |
| NCC[C@H]1CC[C@H](NC(=O)C2CCCCC2)[C@H](CO)O1 | inactive |
| C[C@H](O)C#Cc1ccc2c(c1)O[C@@H](CN(C)C)[C@H](C)CN([C@H](C)CO)S2(=O)=O | inactive |
| C[C@H](CO)N1C[C@H](C)[C@@H](CN(C)C(=O)c2cc(Cl)cc(Cl)c2)OCc2ccccc2-c2c(n(C)c3ccccc23)C1=O | active |
| CC1CC2C3CCC4=CC(=O)C=CC4(C)C3(F)C(O)CC2(C)C1(O)C(=O)COP(=O)([O-])[O-].[Na+].[Na+] (stereo not given) | inactive |
| C[C@H]1CN([C@@H](C)CO)C(=O)Cc2cc(NC(=O)Nc3ccc(C(F)(F)F)cc3)ccc2O[C@H]1CN(C)Cc1ccncc1 | active |
